# According to PMC4336329 (PLoS ONE, 2015):
# Screen size: about 310,000 compounds; about 2,200 (0.71%) showed an effect of 50% or more. The effect is printed as a negative number. The list shows a part of the results.
# Biological target: human ether-à-go-go-related gene (hERG) potassium channel (human, UniProt Q12809)
# Test: primary screen, population patch clamp on CHO cells stably expressing hERG
# human ether-à-go-go-related gene (hERG) potassium channel, sequence (Q12809 whole entry, looked up): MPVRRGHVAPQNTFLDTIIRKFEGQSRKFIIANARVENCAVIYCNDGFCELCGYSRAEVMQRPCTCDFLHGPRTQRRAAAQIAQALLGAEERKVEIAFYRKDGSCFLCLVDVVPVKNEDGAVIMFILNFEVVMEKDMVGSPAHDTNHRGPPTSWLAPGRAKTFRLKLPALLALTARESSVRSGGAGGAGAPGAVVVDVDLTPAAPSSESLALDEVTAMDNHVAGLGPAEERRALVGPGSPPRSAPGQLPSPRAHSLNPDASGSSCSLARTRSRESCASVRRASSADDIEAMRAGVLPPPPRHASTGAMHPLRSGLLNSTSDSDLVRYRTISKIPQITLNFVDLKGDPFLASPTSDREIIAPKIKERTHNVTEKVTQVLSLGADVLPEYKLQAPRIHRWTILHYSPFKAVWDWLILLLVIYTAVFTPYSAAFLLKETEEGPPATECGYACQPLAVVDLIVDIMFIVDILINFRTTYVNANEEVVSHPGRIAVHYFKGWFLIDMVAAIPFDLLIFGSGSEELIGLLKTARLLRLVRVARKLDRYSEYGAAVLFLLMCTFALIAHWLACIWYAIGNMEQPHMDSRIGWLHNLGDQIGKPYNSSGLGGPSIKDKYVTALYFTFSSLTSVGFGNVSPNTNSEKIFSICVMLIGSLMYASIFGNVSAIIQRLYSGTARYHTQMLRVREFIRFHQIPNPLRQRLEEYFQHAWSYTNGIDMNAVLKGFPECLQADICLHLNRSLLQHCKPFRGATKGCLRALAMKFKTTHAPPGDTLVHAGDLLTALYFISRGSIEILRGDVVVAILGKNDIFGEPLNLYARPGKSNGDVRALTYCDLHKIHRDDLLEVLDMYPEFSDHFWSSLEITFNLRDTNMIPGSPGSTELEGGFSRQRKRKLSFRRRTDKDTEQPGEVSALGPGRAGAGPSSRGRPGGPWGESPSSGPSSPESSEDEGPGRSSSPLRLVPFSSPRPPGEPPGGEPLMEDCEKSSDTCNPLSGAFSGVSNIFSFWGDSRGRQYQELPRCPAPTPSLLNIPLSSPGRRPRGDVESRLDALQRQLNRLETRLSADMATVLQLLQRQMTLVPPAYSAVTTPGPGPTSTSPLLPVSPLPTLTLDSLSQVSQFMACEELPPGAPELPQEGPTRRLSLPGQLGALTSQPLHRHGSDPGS
row,Structure (SMILES),"hERG current change (%, negative = inhibition) at 1uM [%]"
1,O=C(COc1cccc2cccnc12)N/N=C/c1cccn1-c1ccc(F)cc1,3.92
2,Cc1ccc(C(=O)C(C)Sc2nnc(N)s2)cc1 (stereo not drawn),1.71
3,CN=C(C)/C(C(=O)OC)=C(/O)c1c(F)cccc1F,8.9
4,O=C(NC1CCCC1)C(c1ccc(Cl)cc1)N1CCc2ccccc21 (stereo not drawn),12.8
5,CCOC(=O)N1CCN(CCC(=O)Nc2ccc(OC)cc2)CC1,5.78
6,Cn1c(CCNC(=O)c2ccc(Cl)cc2)n[nH]c1=S,13.9
7,CC(C)NC(=O)c1onc(CSc2ccccn2)c1C(=O)NC(C)C,11
8,Cc1nc(N2CCN(c3ccccn3)CC2)c2c(C)c(C(=O)N3CCN(c4cccc(Cl)c4)CC3)sc2n1,15.3
9,CCCCC(=O)N/N=C/c1ccc(N2CCOCC2)c([N+](=O)[O-])c1,8.47
10,O=C(COc1ccc(C(F)(F)F)cc1[N+](=O)[O-])Nc1cccc(C(F)(F)F)c1,13.4
11,N#CC1=C(N)Oc2cc(N)ccc2C1c1ccccc1Cl (stereo not drawn),12.7
12,CC1CCN(C(=O)CSc2nncn2-c2ccccn2)CC1,-9.59
13,CC(C)c1ccc(C(C(=O)NC2CCCC2)N(C(=O)CNC(=O)c2ccco2)c2cccnc2)cc1 (stereo not drawn),4.41
14,COCCNC(=O)[C@H](CSCc1ccccc1)N1Cc2ccccc2C1=O,-1.94
15,Cc1cccc(NS(=O)(=O)c2cccc(C(=O)N3CCCC(C(F)(F)F)C3)c2)c1 (stereo not drawn),0.23
16,O=S(=O)(c1ccc(Cl)c(NC(=S)N/N=C/c2ccc(O)cc2)c1)N1CCOCC1,8.96
17,CSCc1ccc(C(=O)NC(C)c2cnn(-c3ccccn3)c2C)o1 (stereo not drawn),9.25
18,CCN(CC)S(=O)(=O)c1cc(C(=O)OC(C)C(=O)NCc2ccco2)ccc1C (stereo not drawn),8.22
19,Cc1ccc2nsnc2c1NC(=O)c1ccc2c(c1)OCCO2,7.57
20,O=S(=O)(Nc1nc2ccccc2nc1Cl)c1ccc(Br)cc1,14.8
21,CC(=O)Nc1ccc(S(=O)(=O)NCCSc2ccccn2)cc1,4.41
22,CCCN1CCC(NC(=O)Cc2cccc(C)c2)CC1,4.41
23,COc1ccccc1Cc1nc(-c2cccnc2)no1,11.9

row,Structure (SMILES),"hERG current change (%, negative = inhibition) at 1uM [%]"
1,COc1ccc(CCNC(=O)COC(=O)c2sc(C)nc2C)cc1,5.54
2,CSc1ccccc1OCc1cc(C(=O)N(C)Cc2nonc2C)no1,9.21
3,Cc1cc(C)n2nc(Cc3ccccc3)nc2n1,-5.47
4,Cc1ccc(Nc2nc(NCCCN3CCOCC3)nc(N)c2[N+](=O)[O-])cc1,-56.2
5,Cc1nc(-c2ccc(F)cc2)c(CC(=O)Nc2cccc(S(=O)(=O)N3CCOCC3)c2)s1,3.21
6,Cc1c(CCOC(=O)CC23CC4CC(CC(C4)C2)C3)sc[n+]1CC(=O)c1ccc(Br)cc1.[Br-],-63.5
7,O=C1CC(c2ccc(Cl)cc2)n2nc(N3C(=O)CCC3=O)nc2N1 (stereo not drawn),14
8,CC(=O)Nc1ccc(S(=O)(=O)N(C)CC(=O)OCC(=O)Nc2ccc3c(c2)OCO3)cc1,7.49
9,CCOCCCNC(=O)C1CCN(Cc2cccc(OCc3ccccc3)c2)CC1.O=C(O)C(=O)O,9.45
10,CCOC(=O)c1ccc(Nc2ccc([N+](=O)[O-])cn2)cc1,15.2
11,O=C(NCc1ccccc1Cl)c1cccc(NC2=NC3CS(=O)(=O)CC3S2)c1 (stereo not drawn),11.3
12,CC(=O)c1cccc(NC(=O)NCc2cccnc2)c1,14.7
13,CC1CCCCC1N(C)C1CCN(C(=O)CNC(=O)/C=C/c2cccc(Cl)c2)CC1 (stereo not drawn),-47.7
14,CCCCN(CC)C(=O)Cc1ccc(Br)cc1,14.5
15,CN1C2CCC1/C(=C/c1cccn1C)C(=O)/C2=C\c1cccn1C,7.69
16,CC(C)N(NC(=O)c1cccc2ccccc12)C(C)C,9.21
17,CN(C)c1cccc(NC(=O)C2(C)CC2(Cl)Cl)c1 (stereo not drawn),0.721
18,CCOc1ccc(C2=Nn3c(nnc3-c3ccccc3)SC2)cc1Cl,18.5
19,COc1ccccc1CN1CCN(Cc2nc(-c3cccs3)no2)CC1,-5.89
20,Cc1ccc(S(=O)(=O)N/N=C/c2ccc(OCC(=O)NC(C)C)cc2)cc1,-9.04
21,CC12CCC(C(=O)NCCc3ccccc3)(OC1=O)C2(C)C (stereo not drawn),11.4
22,O=C(CSc1ccc(F)cc1)N1CCC(c2nc3ccccc3s2)CC1,-30.3
23,O=C(NC1=NCCS1)c1ccc(N2CCCC2=O)cc1,9.39

row,Structure (SMILES),"hERG current change (%, negative = inhibition) at 1uM [%]"
1,O=C(NCc1cccc2[nH]ccc12)C1CCC(=O)N(CCc2ccc(Cl)cc2)C1 (stereo not drawn),4.56
2,C=CCn1c(O)c(/C=N/N2CCCCC2)c(=O)[nH]c1=O,-48
3,CCN1CCC(n2nccc2NC(=O)c2ccccc2Cl)CC1,10.5
4,CCc1nc(SCC(=O)O)c2c3c(sc2n1)COC(C)(C)C3,13.3
5,CCNC(=O)CSc1nnc(-c2ccc(OC)cc2)n1CC(C)C,3.23
6,Cc1cccc(C(C)C)c1NC(=O)CSc1nncn1C,-0.611
7,COc1cc(C(=O)Nc2nc(C)cc(C)n2)cc(OC)c1OC,14.4
8,CCOC(=O)CCCC(=O)N1CCOCCOCCN(C(=O)CCCC(=O)OCC)CCOCCOCC1,13.1
9,O=C(Nc1nccs1)c1ccc(-c2ccc(F)c(Cl)c2)o1,-5.48
10,CC1CCCCN1C(=O)CCn1c(=O)oc2ccccc21 (stereo not drawn),4.53
11,Cc1ccc(S(=O)(=O)Nc2ccc(S(=O)(=O)Nc3cc(C)nc(C)n3)cc2)cc1,16.5
12,Cc1sc(NC(=O)/C=C/c2ccc(C(C)C)cc2)c(C#N)c1C,0.196
13,Cl.OCCN1CCN(CCSc2ccccc2)CC1,4.45
14,Cc1[nH]c(=O)[nH]c(=O)c1NS(=O)(=O)c1ccc2c(c1)CCCC2,19.7
15,O=C(Nc1cccc(Cl)c1)c1cnc[nH]1,14.9
16,CCN(CC)C(=O)CN(c1ccc(C)cc1)S(=O)(=O)c1ccc(SC)cc1,6.52
17,COc1ccc(S(=O)(=O)NNC(=O)c2ccc(-n3c(C)ccc3C)cc2)cc1,12.7
18,O=c1oc2ccc(Br)cc2cc1S(=O)(=O)c1ccc(F)cc1,3.22
19,O=C1COc2ccc(C(=O)CSc3ccc(Br)cc3)cc2N1,13.5
20,Cc1ccc(-n2nc3c4c(cccc4c2=O)-c2ccccc2-3)cc1,4.99
21,O=C(NCC(c1ccco1)N1CCCC1)c1sc2ccccc2c1Cl (stereo not drawn),13.6
22,CCCCNC(=O)c1onc(CSc2ccc(F)c(F)c2)c1C(=O)NCCCC,1.49
23,Cc1cc(C(=O)NNC(=O)Nc2ccc(Cl)cc2)no1,14.6

row,Structure (SMILES),"hERG current change (%, negative = inhibition) at 1uM [%]"
1,Cc1c(NC(=O)c2nn3c(C(F)(F)F)cc(-c4ccccc4)nc3c2Cl)c(=O)n(-c2ccccc2)n1C,1.07
2,O=C1C2C3CCC(C3)C2C(=O)N1Cc1ccccc1 (stereo not drawn),5.58
3,C=CCn1c(SCc2nnc(-c3ccccc3)o2)nnc1C(O)c1ccccc1 (stereo not drawn),2.77
4,CSCCC(NS(=O)(=O)c1ccc(C)cc1)C(=O)N1CCN(S(=O)(=O)c2ccc(F)cc2)CC1 (stereo not drawn),9.66
5,CC(C)Cc1ccc(C(C)C(N)=NCCc2ccccc2)cc1.Cl (stereo not drawn),-16
6,COc1ccc(C(=O)COC(=O)/C=C/c2ccco2)cc1F,6.76
7,COCCN(C(=S)Nc1cccc(OC)c1)C1CCN(C(C)C)CC1,1.92
8,Cc1cc(C)c2oc(C(=O)NCCc3ccc(S(N)(=O)=O)cc3)cc(=O)c2c1,16.3
9,CC(NO)C(C)(C)NO.Cl (stereo not drawn),8.21
10,CCOC(=O)C1CCN(S(=O)(=O)c2ccc(C(C)=O)cc2)CC1,-1.82
11,OC(Cc1nc2ccccc2[nH]1)c1ccccc1Cl (stereo not drawn),6.43
12,Cc1sc2ncnc(N3CCN(CCOc4ccc(Cl)cc4)CC3)c2c1C,2.86
13,S=C(NCc1ccc(Cl)cc1)NCc1ccccn1,9.96
14,COc1ccc(-c2c(C)nn3c(N4CCOCC4)cc(C)nc23)cc1OC,14.5
15,CSCCc1nc(SCC(=O)Nc2nnc(C)s2)[nH]c1C,17
16,CC(C)(C)C(=O)COC(=O)CNC(=O)c1ccc(Oc2ccccc2)cc1,5.18
17,CC(C)N(Cc1ccccc1)C(=S)Nc1cccnc1,6.91
18,COc1ccc(C2CC(c3cc(OC)ccc3OC)n3nnnc3N2)cc1 (stereo not drawn),8.39
19,COc1cc(NS(=O)(=O)c2ccc(NS(=O)(=O)c3ccc(C)cc3)cc2)nc(OC)n1,25.8
20,CCOC(=O)CN1C(=O)Nc2ccc(Br)cc2C1c1ccccc1 (stereo not drawn),-47.9
21,Cc1cccc(NC(=O)Cn2c(=O)n(CC3CCCO3)c(=O)c3ccccc32)c1 (stereo not drawn),22.5
